Laboratory results taken from the supplement of paper PMC4967469.
Lines with a small IC50 respond at low doses; a fit beyond the top or the lowest dose is shown as a bound at that dose. For AUC the same curve is integrated over the 256-fold range of doses and scaled to a fraction; values near 1 show little effect. An inferred top dose is not printed in the source and was worked back from the curve model.

Key:
Assay in all cases: Viability of human cancer cell lines after 72 h of drug (GDSC screen)
Lenalidomide = compound: Nc1cccc2c1CN(C1CCC(=O)NC1=O)C2=O [Lenalidomide]; details: top dose 5 µM; top dose inferred
Experimental: (§1)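 Human cancer cell lines in 384-well plates, medium with 10% serum, drug for 72 h over a 256-fold dose range (nine 2-fold or five 4-fold steps up to the top dose). Adherent lines were fixed and stained with the nucleic acid dye Syto60, suspension lines read with resazurin; signal relative to control wells, capped at 0 and 100%. One two-parameter sigmoid per drug and line, fitted in a mixed model over all curves with the slope shared within a line.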

GW-2580 = compound: COc1ccc(COc2ccc(Cc3cnc(N)nc3N)cc2OC)cc1 [GW-2580]; details: top dose 20 µM; top dose inferred
Experimental: as §1

SGC0946 = compound: CC(C)N(CCCNC(=O)Nc1ccc(C(C)(C)C)cc1)C[C@H]1O[C@@H](n2cc(Br)c3c(N)ncnc32)[C@H](O)[C@@H]1O [SGC0946]; details: top dose 0.5 µM; top dose inferred
Experimental: as §1

Bryostatin 1 = compound: CCC/C=C/C=C/C(=O)O[C@H]1/C(=C/C(=O)OC)C[C@H]2C[C@H]([C@@H](C)O)OC(=O)C[C@H](O)C[C@@H]3C[C@H](OC(C)=O)C(C)(C)[C@](O)(C[C@@H]4C/C(=C/C(=O)OC)C[C@H](/C=C/C(C)(C)[C@]1(O)O2)O4)O3 [Bryostatin 1]; details: top dose 0.008 µM; top dose inferred
Experimental: as §1

Cell Line	AUC (Lenalidomide)	IC50 (Lenalidomide)	AUC (GW-2580)	IC50 (GW-2580)	AUC (SGC0946)	IC50 (SGC0946)	AUC (Bryostatin 1)	IC50 (Bryostatin 1)
HSC-39 (stomach, suspension)	0.991	> 5000 nM	0.99	> 20000 nM	0.991	> 500 nM	0.991	> 8 nM
HT-3 (cervix, adherent)	0.987	> 5000 nM	0.987	> 20000 nM	0.986	> 500 nM	0.987	> 8 nM
HT-29 (large intestine, adherent)	0.988	> 5000 nM	0.983	> 20000 nM	0.986	> 500 nM	0.984	> 8 nM
HT-115 (large intestine, adherent)	0.991	> 5000 nM	0.982	> 20000 nM	0.991	> 500 nM	0.991	> 8 nM
HT-1080 (fibrosarcoma, adherent)	0.989	> 5000 nM	0.985	> 20000 nM	0.988	> 500 nM	0.959	> 8 nM
HT-1197 (bladder, adherent)	0.981	> 5000 nM	0.97	> 20000 nM	0.974	> 500 nM	0.908	> 8 nM
HT-1376 (bladder, adherent)	0.957	> 5000 nM	0.984	> 20000 nM	0.98	> 500 nM	0.973	> 8 nM
Hep 3B2_1-7 (liver, adherent)	0.973	> 5000 nM	0.976	> 20000 nM	0.983	> 500 nM	0.966	> 8 nM
Hs633T (fibrosarcoma, adherent)	0.992	> 5000 nM	0.992	> 20000 nM	0.991	> 500 nM	0.992	> 8 nM
Hs683 (glioma, adherent)	0.988	> 5000 nM	0.988	> 20000 nM	0.987	> 500 nM	0.976	> 8 nM
Hs766T (pancreas, adherent)	0.947	> 5000 nM	0.984	> 20000 nM	0.978	> 500 nM	0.967	> 8 nM
Hs939-T (melanoma, adherent)	0.985	> 5000 nM	0.986	> 20000 nM	0.984	> 500 nM	0.984	> 8 nM
Hs-578-T (breast, adherent)	0.987	> 5000 nM	0.987	> 20000 nM	0.985	> 500 nM	0.987	> 8 nM
HuCCT1 (biliary tract, adherent)	0.983	> 5000 nM	0.963	> 20000 nM	0.982	> 500 nM	0.959	> 8 nM
HuH-7 (liver, adherent)	0.986	> 5000 nM	0.983	> 20000 nM	0.983	> 500 nM	0.887	> 8 nM
HuO9 (osteosarcoma, adherent)	0.984	> 5000 nM	0.973	> 20000 nM	0.979	> 500 nM	0.979	> 8 nM

Cell Line	AUC (Lenalidomide)	IC50 (Lenalidomide)	AUC (GW-2580)	IC50 (GW-2580)	AUC (SGC0946)	IC50 (SGC0946)	AUC (Bryostatin 1)	IC50 (Bryostatin 1)
HuO-3N1 (osteosarcoma, adherent)	0.957	> 5000 nM	0.982	> 20000 nM	0.98	> 500 nM	0.963	> 8 nM
HuP-T3 (pancreas, adherent)	0.964	> 5000 nM	0.983	> 20000 nM	0.98	> 500 nM	0.895	> 8 nM
IA-LM (large cell lung carcinoma, adherent)	0.981	> 5000 nM	0.978	> 20000 nM	0.983	> 500 nM	0.978	> 8 nM
IGR-37 (melanoma, adherent)	0.983	> 5000 nM	0.988	> 20000 nM	0.988	> 500 nM	0.923	> 8 nM
IHH-4 (thyroid, semi-adherent)	0.983	> 5000 nM	0.981	> 20000 nM	0.972	> 500 nM	0.988	> 8 nM
IMR-5 (neuroblastoma, adherent)	0.962	> 5000 nM	0.986	> 20000 nM	0.991	> 500 nM	0.986	> 8 nM
IPC-298 (melanoma, adherent)	0.986	> 5000 nM	0.984	> 20000 nM	0.97	> 500 nM	0.965	> 8 nM
IST-MEL1 (melanoma, adherent)	0.97	> 5000 nM	0.979	> 20000 nM	0.978	> 500 nM	0.977	> 8 nM
JEG-3 (urogenital system, adherent)	0.964	> 5000 nM	0.989	> 20000 nM	0.99	> 500 nM	0.946	> 8 nM
JHH-1 (liver, adherent)	0.955	> 5000 nM	0.985	> 20000 nM	0.982	> 500 nM	0.982	> 8 nM
JHH-2 (liver, adherent)	0.982	> 5000 nM	0.985	> 20000 nM	0.967	> 500 nM	0.986	> 8 nM
JHH-4 (liver, adherent)	0.984	> 5000 nM	0.96	> 20000 nM	0.986	> 500 nM	0.985	> 8 nM
JHH-6 (liver, adherent)	0.983	> 5000 nM	0.963	> 20000 nM	0.984	> 500 nM	0.987	> 8 nM
JHH-7 (liver, adherent)	0.989	> 5000 nM	0.984	> 20000 nM	0.988	> 500 nM	0.984	> 8 nM
JHU-022 (head and neck, adherent)	0.946	> 5000 nM	0.982	> 20000 nM	0.976	> 500 nM	0.972	> 8 nM
